The structures appear in SMILES notation. The whole screen tested about 44,000 compounds, of which about 340 (0.77%) were called active. Another 5% or so got no clear call; they are omitted. The call rests on the fitted dose curve; in most records, active means well fitted inhibition curve with a large enough effect; inconclusive means small, poorly fitted or top-dose-only effect; inactive means flat fitted curve, though single readings scatter. The list shows a part of the results.
Potency means the concentration at half of the fitted maximal effect.

This assay is described as follows: Acumen qHTS Assay for Inhibitors of the mTORC1 Signaling Pathway in MEF (Tsc2-/-, p53-/-) Cells: Sytravon. Further: nearly all actives have a fitted effect of over 50% in size.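 On activity change, negative = inhibition: plate controls were DMSO for no effect and rapamycin for full effect.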 The following applies: phospho-rpS6 immunofluorescence/PI, 24 h; series mostly up to 38.3 µM; activity change, negative = inhibition: at the top concentration. The method, boiled down:
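Compounds act on Tsc2-/-, p53-/- fibroblasts carrying an empty vector for 24 h before fixation and dual staining for phospho-S6 and DNA (propidium iodide). Values are percentages of cells above a rapamycin-defined pS6/PI threshold.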
For the compound `Cc1cc(F)ccc1-n1nnc(C(N)=O)c1C`, the “activity change, negative = inhibition” value is inactive: 0.6%. On the same count and under the same terms, the value for `CC(=O)c1cccc(NC(=O)c2c(-c3ccccc3)c(-c3ccccc3)nn(C)c2=O)c1` was inactive: -4.76%; that for `CN(Cc1ccccc1)c1ccc(-c2nc(-c3ccco3)no2)cc1[N+](=O)[O-]` was inactive: -2.58%; that for `O=C(c1ccccc1Cl)N(Cc1ccco1)Cc1ccco1` was inactive: 1.05%. Same read-out and setting: with `CCOC(=O)c1ccc(NC(=O)CC2C(=O)N(c3ccc(C)cc3)C(=O)N2C2CCCCC2)cc1` (configuration not stated) the figure was inactive: 3.1%. Same read-out and setting: the value for `Cc1cc(C(F)(F)F)nn1-c1nc(-c2ccccc2)cc(C(F)(F)F)n1` was inactive: -16.4%; that for `Cc1cc(=O)n(CC(=O)Nc2ccc([N+](=O)[O-])cc2)c(-n2nc(C)cc2C)n1` was inactive: 0.666%. On to `COc1ccc(CCN2C(=O)c3[nH]nc(-c4ccccc4O)c3C2c2cccc(OC)c2)cc1` (configuration not stated), for which the Potency was active: 14.7 µM. With `Cc1ccccc1NC(=O)Cn1c(=O)n(CCc2ccccc2)c(=O)c2sc3ccccc3c21`, the “activity change, negative = inhibition” value is inactive: -6.49%. The same measure, in the same setting: with `Cc1[nH]c2ccccc2c1C(c1ccccc1)c1cccs1` (configuration not stated) the figure was inactive: 6.36%; with `Cc1cccc(-n2c(SCc3nc(-c4ccccc4C)no3)nnc2-c2ccccc2)c1`, inactive: -6.08%.

On to `CN1CCN(c2oc(/C=C/c3ccc(F)cc3)nc2C#N)CC1`, for which the “activity change, negative = inhibition” value was inactive: 3.16%. Same read-out and setting: the value for `CCOC(=O)c1ccccc1NS(=O)(=O)c1ccc(N2CCCCS2(=O)=O)cc1` was inactive: 0%; that for `COc1cc(NC(=O)c2nn(-c3ccc(C)cc3)c(=O)c3c2c2ccccc2n3C)cc(OC)c1OC` was inactive: 1.17%; that for `CCc1nn(CC(=O)NC(C)CC)c(=O)c2cc3c(OC)cccc3n12` (configuration not stated) was inactive: -0.289%. Still for that read-out and setting: the value for `COc1ccc(-c2noc(-c3ccc(N4CCN(c5ccc(OC)cc5)CC4)c([N+](=O)[O-])c3)n2)cc1` was inactive: 1.49%; that for `CCOc1ccc(-n2nc(CO)c(C(=O)NCc3cccnc3)n2)cc1` was inactive: -2.65%; that for `COc1cccc(N2CCN(C(=O)c3cc4c(=O)n(Cc5ccccc5)ccc4nc3C)CC2)c1` was inactive: 0.728%. On the same count and under the same terms, with `Cc1cccn2c(=O)c(C(=O)NCc3ccccc3Cl)c(O)nc12` the figure was inactive: -0.41%. On to `COc1cc(C)ccc1OCCCn1c(-c2ccc(Cl)cc2)nc2ccccc2c1=O`, for which the “activity change, negative = inhibition” value is inactive: 0.092%.

Take `Cc1ccccc1-c1nc(CS(=O)CC(=O)N2CCN(c3cc(Cl)ccc3C)CC2)c(C)o1` (configuration not stated): the “activity change, negative = inhibition” value is inactive: -6.39%.

Take `CCC(=O)N1c2ccccc2CC1C(=O)NCc1cccc(C)c1` (configuration not stated): the “activity change, negative = inhibition” value is inactive: 0%. Regarding `CCCCC(=O)Nc1cccc(-c2nc3ncccc3o2)c1C`, the “activity change, negative = inhibition” value was inactive: 5.56%.

Consider `CCN(CC)CCCNC(=O)Cn1nc(C)n2c(cc3sccc32)c1=O`, for which the “activity change, negative = inhibition” value is inactive: -4.86%. Still for that read-out and setting: the value for `Cc1ccc(C(=O)c2oc3ccccc3c2NC(=O)Cc2coc3cc(C)ccc23)cc1` was inactive: -3.6%; that for `CCCCc1ccc(NC(=O)Cn2nnc3sc4c(c3c2=O)CCC(C)C4)cc1` (configuration not stated) was inactive: -1.29%; that for `COc1ccc(CCNC(=O)Cn2c(=O)n(-c3ccc(C)c(C)c3)c(=O)c3c(C)c(C)sc32)cc1OC` was inactive: 7.12%. As to `COc1ccc(Cn2nnc3c(=O)[nH]c(C4CCCN(C(=O)c5ccc(C)cc5)C4)nc32)cc1` (configuration not stated), the “activity change, negative = inhibition” value was inactive: -5.1%.

Take `Cc1nn(S(=O)(=O)c2ccccc2)c(C)c1S(=O)(=O)N1CCC(C)CC1`: the “activity change, negative = inhibition” value was inactive: -5.49%. The same measure, in the same setting: with `CCc1ccccc1NC(=O)Cn1ccn(-c2cc(C)cc(C)c2)c(=O)c1=O` the figure was inactive: -4.26%; with `COc1ccc(NC(=O)c2ccc3oc(=O)c(S(=O)(=O)c4ccc(C)cc4)cc3c2)cc1OC`, inactive: 2.19%; with `CCOc1cccc(C2Nc3ccccc3-c3cc(C)nn32)c1O` (configuration not stated), inactive: 1.81%. Still for that read-out and setting: with `Clc1cccc(CSc2nncn3c2cc2sccc23)c1` the figure was inactive: -3.58%; with `COc1ccc(OC)c(C(=O)c2c(N)c(-c3nc(-c4ccc(C)c(C)c4)cs3)c3ccccn23)c1`, inactive: -3.66%. The same measure, in the same setting: with `CCn1c(=NC(=O)c2ccc3c(c2)OCCO3)sc2c(C)ccc(OC)c21` the figure was inactive: -18.6%.

On to `CCOC(=O)C1(C)C=C(Nc2ccc(Br)cc2)C(=O)N1c1ccccc1` (configuration not stated), for which the “activity change, negative = inhibition” value was inactive: -24.5%. On the same count and under the same terms, the value for `Cc1ccc(NC(=O)CSc2nc(C)c(Cc3ccccc3)c(=O)[nH]2)cc1C` was inactive: -10%; that for `Cc1ccc(OCC(=O)Nc2ccc(OCc3cc(=O)n4cccc(C)c4n3)cc2)cc1C` was inactive: -0.225%. On the same count and under the same terms, the value for `COc1ccc(CCNC(=O)Cc2c(C)c3c(cc(C)c4c(C)coc43)oc2=O)cc1OC` was inactive: -1.06%. Take `Cc1nn(C(C)C(=O)NC2CCCCC2)c(=O)c2c1sc1ccccc12` (configuration not stated): the Potency was active: 1.04 µM. As to `Cc1ccc(-c2nnc(Nc3ccc(Br)cc3)c3ccccc23)cc1S(=O)(=O)N1CCN(C)CC1`, the “activity change, negative = inhibition” value was inactive: -15.8%. In the case of `COc1ccc(CC(=O)NC2CC(=O)N(c3cccc(F)c3)C2)cc1` (configuration not stated), the “activity change, negative = inhibition” value was inactive: -0.303%. For the compound `COc1ccc(CCNC(=O)c2ccc3c(c2)CCN3S(C)(=O)=O)cc1`, the “activity change, negative = inhibition” value was inactive: -1.64%.

Take `COc1ccc2c(CNCc3ccc(C)o3)c(C(=O)O)n(Cc3ccccc3C)c2c1`: the “activity change, negative = inhibition” value is inactive: -4.78%.

`CCN(C(=O)C(=O)Nc1ccc2nc3n(c(=O)c2c1)CCCCC3)c1ccc(F)cc1`: the “activity change, negative = inhibition” value was inactive: -5.39%.

For the compound `Cc1ccc2sc(N(Cc3cccnc3)C(=O)CCOc3ccccc3)nc2c1C`, the “activity change, negative = inhibition” value is inactive: 5.8%.

Turning to `Cc1c(C(=O)N(Cc2ccc(N(C)C)cc2)C2CCS(=O)(=O)C2)oc2ccccc12` (configuration not stated), the “activity change, negative = inhibition” value was inactive: 6.69%.
